Laboratory results reported in the antibiotic and cytotoxicity screens of Wong et al. (2023).
The list shows a part of the results.

system: S. aureus RN4220; experiment: growth inhibition call (relative growth <= 0.2); conditions: 50 µM

Growth inhibition call, inactive:
C[C@@H]1CN([C@H](C)CO)C(=O)c2c(c3ccccc3n2C)-c2ccccc2CO[C@H]1CN(C)Cc1cccc(C(F)(F)F)c1
COc1cccc(C#Cc2ccc([C@H]3[C@@H](CO)N4C(=O)CN(S(=O)(=O)c5ccccc5C)C[C@@H]34)cc2)c1
Cc1ccc(S(=O)(=O)N(C)C[C@H]2Oc3ccc(NC(=O)Nc4ccc(C(F)(F)F)cc4)cc3C(=O)N([C@H](C)CO)C[C@H]2C)cc1
C[C@@H]1CN([C@H](C)CO)C(=O)c2cc(C#CCN(C)C)cnc2O[C@H]1CN(C)C(=O)CN1CCOCC1
C[C@H]1CN([C@@H](C)CO)C(=O)c2cccc(NC(=O)c3cnccn3)c2O[C@@H]1CN(C)S(=O)(=O)c1ccc(F)cc1
C[C@@H]1CN([C@@H](C)CO)C(=O)c2cc(NC(=O)C3CC3)ccc2O[C@@H]1CN(C)Cc1ccc(Oc2ccccc2)cc1
CCN(CC)CCOC(=O)C(c1ccccc1)C1CCCCC1.Cl (configuration not stated)
CS(=O)(=O)N1[C@@H]2c3ccc(-c4ccccc4)c(=O)n3C[C@H]1[C@H](CO)[C@H]2C(=O)NCC1CC1
Cc1noc(C)c1CO
CC[C@@H](N)c1ncnn1CC
O=C(CN1CCOCC1)N[C@@H]1CC[C@@H](CCNC(=O)C2CCC2)O[C@@H]1CO
C[C@H]1NC(=O)N[C@@H]1CCCCC(=O)O
COc1ccc(S(=O)(=O)Nc2ccc3c(c2)CC(=O)N([C@@H](C)CO)C[C@H](C)[C@@H](CN(C)S(=O)(=O)c2ccc(F)cc2)O3)cc1
C[C@@H]1CN([C@@H](C)CO)C(=O)Cc2cc(NS(C)(=O)=O)ccc2O[C@@H]1CN(C)C
CC(C)NC(=O)N(C)C[C@H]1Oc2cc(C#Cc3ccccn3)ccc2S(=O)(=O)N([C@@H](C)CO)C[C@H]1C
C[C@H](CO)N1C[C@H](C)[C@@H](CN(C)S(=O)(=O)c2ccccc2F)Oc2ncc(C#Cc3cccnc3)cc2C1=O
COc1ccc2c3c(n(c2c1)C)[C@H](CO)N(CC1CCOCC1)C[C@]13CCN(CC1)C(=O)Cc1cccnc1
CC/N=C1\S[C@H](C(N)=O)CC(=O)N1CC
Cc1noc(C)c1NC(=O)Nc1ccc2c(c1)CC(=O)N([C@@H](C)CO)C[C@H](C)[C@@H](CN(C)S(=O)(=O)c1c(C)noc1C)O2
C[C@@H]1CN([C@@H](C)CO)C(=O)c2cc(NC(=O)Nc3ccc4c(c3)OCO4)ccc2O[C@@H](C)CCCCO[C@H]1CN(C)Cc1ccc(Cl)c(Cl)c1
Cc1noc(C)c1NC(=O)Nc1ccc2c(c1)C(=O)N([C@@H](C)CO)C[C@H](C)[C@H](CN(C)C(=O)NC1CCCCC1)OCCCC[C@H](C)O2
NC(=O)CCN1C(=O)[C@@H]2[C@@H](C1=O)[C@@H]1C=C[C@@H]2C1
COc1ccc(S(=O)(=O)N(C)C[C@@H]2OCCCC[C@@H](C)Oc3ccc(NC(=O)Nc4ccc(C(F)(F)F)cc4)cc3C(=O)N([C@@H](C)CO)C[C@H]2C)cc1
CC(C)(C)c1ccc(S(=O)(=O)Nc2nccnc2-c2ccc(CNCc3ccc4c(c3)OCO4)cc2)cc1
O=C(O)C=Cc1ccc(Cn2ccnc2)cc1
C[C@@H]1CCCCO[C@H](CN(C)Cc2ccc3c(c2)OCO3)[C@@H](C)CN([C@H](C)CO)C(=O)c2cc(NC(=O)Nc3ccc(F)cc3)ccc2O1
O=C(C[C@@H]1C[C@H]2c3cc(NC(=O)NC4CCCC4)ccc3O[C@H]2[C@H](CO)O1)NCc1ccc(Oc2ccccc2)cc1
COc1ccc(S(=O)(=O)Nc2ccc3c(c2)C(=O)N([C@@H](C)CO)C[C@H](C)[C@@H](CN(C)C(=O)Nc2c(C)noc2C)OCCCC[C@@H](C)O3)cc1
C=CCC[C@H](Cc1ccc(F)cc1)C(=O)OC[C@@H](NC(=O)[C@@H](CC=C)CC(=O)N(CCO)Cc1ccccc1)c1ccccc1
COc1ccc(NC(=O)N(C)C[C@H]2Oc3ncc(C#CCN(C)C)cc3C(=O)N([C@H](C)CO)C[C@@H]2C)cc1
Cc1ccc(S(=O)(=O)Nc2ccc3c(c2)CC(=O)N([C@@H](C)CO)C[C@@H](C)[C@@H](CN(C)S(=O)(=O)c2cccs2)O3)cc1
C[C@@H]1CN([C@@H](C)CO)C(=O)c2cccc(NS(=O)(=O)c3ccc(F)cc3)c2O[C@@H]1CN(C)Cc1ccncc1
